{"source": "the supplement of paper PMC9446081", "note": "Out of some 39,000 compounds screened, about 220 (0.56%) showed activity. This is one part of the list.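 Note: static incubation at 37 °C against the wild-type strain, values averaged over two biological replicates.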", "data": [{"system": "Escherichia coli K-12 BW25113", "assay": "relative growth (OD600 normalised to plate interquartile mean) (fraction); higher = less growth inhibition, active = 0.2 or less", "conditions": "50 µM; LB; incubation time: overnight (16-24 h)", "values": [{"smiles": "C[C@@H]1CN([C@H](C)CO)C(=O)c2cc(NC(=O)NC3CCCCC3)ccc2O[C@@H](C)CCCCO[C@@H]1CN(C)S(=O)(=O)c1cccs1", "relative growth": "inactive: 1.02"}, {"smiles": "Cc1cc(C)c(C(=O)O)c(=O)[nH]1", "relative growth": "inactive: 0.967"}, {"smiles": "C[C@@H]1CN([C@H](C)CO)C(=O)c2cc(C#CC3CCCC3)cnc2O[C@@H]1CN(C)S(=O)(=O)c1cccc(F)c1", "relative growth": "inactive: 1.01"}, {"smiles": "O=C(O)CNC(=O)CN1C(=O)c2ccccc2C1=O", "relative growth": "inactive: 0.978"}, {"smiles": "C[C@H](CO)N1C[C@H](C)[C@H](CN(C)Cc2ccncc2)Oc2ccc(NC(=O)CCN3CCOCC3)cc2C1=O", "relative growth": "inactive: 0.999"}, {"smiles": "Cn1c(=O)[nH]c(=O)c2c1nc(N1CCN(CCO)CC1)n2CCC#N", "relative growth": "inactive: 0.994"}, {"smiles": "C[C@@H]1CN([C@@H](C)CO)C(=O)c2cc(C#CCN(C)C)cnc2O[C@@H]1CN(C)Cc1ccc2c(c1)OCO2", "relative growth": "inactive: 1.02"}, {"smiles": "C[C@@H]1CCCCO[C@H](CN(C)S(=O)(=O)c2ccc(F)cc2)[C@H](C)CN([C@@H](C)CO)C(=O)c2cc(NC(=O)Nc3ccc(F)cc3)ccc2O1", "relative growth": "inactive: 1.03"}, {"smiles": "CS(=O)(=O)Nc1ccc2c(c1)[C@@H]1C[C@H](CC(=O)NCc3ccc(-c4ccccc4)cc3)O[C@@H](CO)[C@@H]1O2", "relative growth": "inactive: 0.976"}, {"smiles": "C[C@@H]1CN([C@H](C)CO)C(=O)Cc2cc(NC(=O)Cn3cnnn3)ccc2O[C@H]1CN(C)CC1CC1", "relative growth": "inactive: 1.02"}, {"smiles": "C[C@H](CO)N1C[C@H](C)[C@H](CN(C)C(=O)Nc2ccc(F)cc2)Oc2ccc(NC(=O)CCCCCC(=O)Nc3ccccc3N)cc2C1=O", "relative growth": "inactive: 0.962"}, {"smiles": "C[C@H](CO)N1C[C@H](C)[C@@H](CN(C)C(=O)Nc2ccc3c(c2)OCO3)OCCCC[C@H](C)Oc2ccc(NC(=O)c3ccccc3)cc2C1=O", "relative growth": "inactive: 1.03"}, {"smiles": "C[C@H](CO)N1C[C@H](C)[C@H](CN(C)S(C)(=O)=O)Oc2ccc(NC(=O)Cc3ccccc3)cc2C1=O", "relative growth": "inactive: 1.02"}, {"smiles": "O=C(O)C1CCOCC1", "relative growth": "inactive: 0.957"}, {"smiles": "CC(C)C#Cc1ccc2c(c1)O[C@H](CN(C)C(=O)c1cccc(F)c1)[C@@H](C)CN([C@H](C)CO)S2(=O)=O", "relative growth": "inactive: 0.974"}, {"smiles": "Cc1noc(C)c1NC(=O)N(C)C[C@H]1OCCCC[C@H](C)Oc2ccc(NS(=O)(=O)c3cccs3)cc2C(=O)N([C@@H](C)CO)C[C@H]1C", "relative growth": "inactive: 0.998"}, {"smiles": "Cc1noc(C)c1NC(=O)N(C)C[C@@H]1Oc2ncc(Br)cc2C(=O)N([C@@H](C)CO)C[C@H]1C", "relative growth": "inactive: 0.985"}, {"smiles": "C[C@H]1CN([C@@H](C)CO)C(=O)c2cccc(NC(=O)Nc3cccc4ccccc34)c2O[C@H]1CN(C)Cc1ccc(Oc2ccccc2)cc1", "relative growth": "inactive: 1.02"}]}]}
